Earlier results in US20070082017A1, “Lipid compositions and methods of use” (priority 2004, published 2007).
At least one compound was matched to its structure with a doubt left.

Conditions: cited from earlier work

Structure (SMILES) | AGGREGATION NUMBER | CMC [mM]
CCCCCCCCCCCCCC[N+](C)(C)CCCS(=O)(=O)[O-] [SB3-14] | 83 | 0.1 to 0.4
CCCCCCCCCCCCO[C@@H]1O[C@H](CO)[C@@H](O[C@H]2O[C@H](CO)[C@@H](O)[C@H](O)[C@H]2O)[C@H](O)[C@H]1O [n-Dodecyl β-D-maltoside] | 98 | 0.1 to 0.6
CCCCCCCCCCCC[N+](C)(C)CCCS(=O)(=O)[O-] [SB3-12] | 55 | 2 to 4
CCCCCCCCCCCCCCCC[N+](C)(C)CCCS(=O)(=O)[O-] [SB3-16] | – | 0.01 to 0.04
CCCCCCCCS[C@@H]1O[C@H](CO)[C@@H](O)[C@H](O)[C@H]1O [n-Octyl β-D-thioglucopyranoside] | – | 9
CCCCCCCCCC(=O)N(C)C[C@H](O)[C@@H](O)[C@H](O)[C@H](O)CO [Decanoyl-N-methylglucamide] | – | 6 to 7
CCCCCCCS[C@@H]1O[C@H](CO)[C@@H](O)[C@H](O)[C@H]1O [n-Heptyl β-D-thioglucopyranoside] | – | 30
C[C@H](CCC(=O)N(CCCNC(=O)[C@H](O)[C@@H](O)[C@H](O)[C@H](O)CO)CCCNC(=O)[C@H](O)[C@@H](O)[C@H](O)[C@H](O)CO)[C@H]1CC[C@H]2[C@@H]3CC[C@@H]4C[C@H](O)CC[C@]4(C)[C@H]3C[C@H](O)[C@]12C [Deoxy-BIGCHAP] | 8-16 | 1.1 to 1.4
CCCCCCCCCC[N+](C)(C)CCCS(=O)(=O)[O-] [SB3-10] | – | 25 to 40
CCCCCCCC(=O)N(C)C[C@H](O)[C@@H](O)[C@H](O)[C@H](O)CO [Octanoyl-N-methylglucamide] | – | 58
C[C@H](CCC(=O)N(CCCNC(=O)[C@H](O)[C@@H](O)[C@H](O)[C@H](O)CO)CCCNC(=O)[C@H](O)[C@@H](O)[C@H](O)[C@H](O)CO)[C@H]1CC[C@H]2[C@@H]3[C@H](O)C[C@@H]4C[C@H](O)CC[C@]4(C)[C@H]3C[C@H](O)[C@]12C [BIGCHAP] | 10 | 3 to 4
CCCCCCCCC(=O)N(C)C[C@H](O)[C@@H](O)[C@H](O)[C@H](O)CO [Nonanoyl-N-methylglucamide] | – | 19 to 25
